{"source": "PubChem BioAssay AID995", "about": "(National Center for Advancing Translational Sciences (NCATS), 2007)", "note": "The whole screen tested about 72,000 compounds, of which about 710 (0.99%) were called active. Inconclusive results, whose numbers are uncertain, are shown with a selection of clear calls. Calls come from the whole dose curve; as a rule, active = well fitted inhibition curve with a large enough effect; inconclusive = small, poorly fitted or top-dose-only effect; inactive = no such curve, though single readings can be large or run the other way. Potencies of inconclusive entries are left out as doubtful fits. % is set by controls: 0 for no effect and ±100 for the full control effect; potency is the fitted concentration of half-maximal effect; tags give direction and shape of the fitted curve."}
{"test": "qHTS Assay for Inhibitors of the ERK Signaling Pathway using a Homogeneous Screening Assay; note: nearly all actives have a fitted effect of over 55% in size", "details": "HEK293-V1b, vasopressin-stimulated pERK AlphaScreen; activity, negative = inhibition: at 57.5 µM (top of the series) unless noted", "method_in_brief": "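HEK293 cells stably expressing V1b receptor, preincubated 30 min at 37 °C with compound, then stimulated 5 min with 25 nM vasopressin. Phospho-ERK by AlphaScreen SureFire after 5 h RT; normalized to DMSO and vasopressin; AC50 by Hill fit.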"}
{"molecule": "COc1cccc(/C=N/n2c(SC)nnc2-c2ccccc2)c1OC", "Potency": "inconclusive [inhibitor, partial curve]"}
{"molecule": "O=C(CN1CCN(C2CCCCC2)CC1)Nc1ccccc1N1CCCCC1", "Potency": "active: 25.1 µM"}
{"molecule": "O=C(Nc1ccc2c(c1)OCCO2)C1CCC1", "Potency": "inactive"}
{"molecule": "N#Cc1c(/N=C/c2ccco2)sc2c1CCCCC2", "Potency": "inconclusive [inhibitor, partial curve]"}
{"molecule": "COC(=O)c1c(N)nc(C)n1-c1ccc(OC)cc1", "Potency": "inconclusive [inhibitor, single point]"}
{"molecule": "CCCCc1ccc(NC(=O)C2CCN(S(C)(=O)=O)CC2)cc1", "activity, negative = inhibition": "inconclusive: -32.8% [inhibitor]"}
{"molecule": "Cc1ccccc1-c1ccc2ncnc(NCc3cccnc3)c2c1", "Potency": "inconclusive [inhibitor, partial curve]"}
{"molecule": "COc1cccc(NC(=O)N(Cc2cc3cc(C)cc(C)c3[nH]c2=O)CC2COCCO2)c1", "note": "(centres undefined)", "Potency": "inconclusive [inhibitor, partial curve]"}
{"molecule": "O=C(Nc1ccccc1C(=O)OCC(=O)N1CCc2ccccc2C1)c1ccco1", "Potency": "inconclusive [inhibitor, partial curve]"}
{"molecule": "COC(=O)CSc1ccc2c(N)c(C(=O)OC)sc2c1", "Potency": "inconclusive [inhibitor, partial curve]"}
{"molecule": "CCOC(=O)Cc1c(C)nc2c(-c3cccc(Br)c3)c[nH]n2c1=O", "Potency": "inconclusive [inhibitor, full curve, poor fit]"}
{"molecule": "O=C(CSc1ncnc2c1oc1ccccc12)c1cccs1", "Potency": "inactive"}
{"molecule": "COc1ccc(CCNC(=O)CN2CCC(n3nnc4cc(F)ccc43)CC2)cc1OC", "Potency": "inconclusive [inhibitor, full curve, poor fit]"}
{"molecule": "NC1=CC(=O)c2cccc3cccc1c23", "Potency": "inactive"}
{"molecule": "CC(C)C(NC(=O)CNC(=O)OC(C)(C)C)C(=O)NCc1ccccc1", "note": "(centres undefined)", "Potency": "inconclusive [inhibitor, full curve, poor fit]"}
{"molecule": "CCCCC1C(=O)N(c2ccccc2)N(c2ccccc2)C1=O", "Potency": "inconclusive [inhibitor, partial curve]"}
{"molecule": "Cc1ccc(CNc2ccc(O)cc2)cc1", "Potency": "inconclusive [inhibitor, single point]"}
{"molecule": "Cc1cc(/C=N/n2cnnc2)c(C)n1-c1ccc(C(=O)O)cc1", "Potency": "inconclusive [inhibitor, single point]"}
{"molecule": "O=S(=O)(O)c1cc(O)c2c(O)c(N=Nc3cccc4ccccc34)c(S(=O)(=O)O)cc2c1", "Potency": "inconclusive [inhibitor, single point]"}
